Test results from the supplement of paper PMC11417369.
± gives the standard deviation of the averaged measurements. Some of the results follow.

Each sequence was assayed on PfAP2-LT AP2 domain (GST-tagged) (assay: gcPBM binding intensity (ln(normalized median fluorescence intensity)); higher = stronger DNA binding).
Method in brief: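 The highest Masliner-normalised natural-log median intensity across replicate spots of either probe orientation is reported as binding intensity. GST-tagged P. falciparum DNA-binding domains expressed in E. coli were applied for 1 h to an Agilent 4 × 180k array of primer-extended double-stranded 36-bp intergenic genomic probes plus negative controls, and bound protein was detected with Alexa488 anti-GST antibody and scanned at 488 nm.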
“GTATATATATATATATATATATATTTTTATTTATTT [CACACA_negctrl_site589]” was tested, and the “gcPBM binding intensity (ln)” value was 9.21 ± 0.19. “AATATAAGTAGTACAGTGCATATAATAATTAGAAGA [GTGCAC_site9485]” was tested, and the “gcPBM binding intensity (ln)” value was 9.06 ± 0.46. In the case of “CCATAAAAAGGATACACACACACACGCACATATATA [CACACA_site6550]”, the “gcPBM binding intensity (ln)” value is reported as 9.92 ± 0.11. In the case of “TTGATTTATATTTAATGTACATTTTTACAGAAAATT [XGTACX_site2747]”, the “gcPBM binding intensity (ln)” value is reported as 8.45 ± 0.49. In the case of “GATTAAACACAAAGAAGTACGGACATAAAAAAAAAA [XGTACX_site3686]”, the “gcPBM binding intensity (ln)” value is reported as 8.88 ± 0.56. “TAAAAATATTAATAAACACACAATGAGATATTGAAT [CACACA_site3153]” was tested, and the “gcPBM binding intensity (ln)” value was 8.82 ± 0.39. For “ATATATATATTATATGCACACGTTAAAATTTCATAT [CACACA_site4552]”, the “gcPBM binding intensity (ln)” value was 8.98 ± 0.28. “TATTATAATATTTATACACACATAATTTTGATAAAT [CACACA_site583]” was tested, and the “gcPBM binding intensity (ln)” value was 8.68 ± 0.4. In the case of “TGATATATTTATATTACACACTTAAACGAAAAAAAA [CACACA_site3021]”, the “gcPBM binding intensity (ln)” value is reported as 8.59 ± 0.37. “AAATATAAAATTTATTGTACATTATATATAATATAT [XGTACX_site1416]” was tested, and the “gcPBM binding intensity (ln)” value was 8.54 ± 0.38. In the case of “ATATTATATATATAGGTGCGAGTATTTTATAAATAT [GTGCAC_site9889]”, the “gcPBM binding intensity (ln)” value is reported as 8.76 ± 0.31. With “TATACACCCGGACACACACACATATATATATATATA [CACACA_site5030]” the “gcPBM binding intensity (ln)” value was 10.36 ± 0.028. With “TAAGTATACACATACACACACACACTAATAAAAAAA [CACACA_site8035]” the “gcPBM binding intensity (ln)” value was 10 ± 0.26. In the case of “TTCTTCTGTTTTATTACACACCATTTTGCGTATACA [CACACA_site2070]”, the “gcPBM binding intensity (ln)” value is reported as 9.28 ± 0.38. For “ACATATTATATAACTCGTACTCGTAAAATATGTTGT [XGTACX_site2240]”, the “gcPBM binding intensity (ln)” value was 9.07 ± 0.3. With “GTCATAAATGTACGCACACATACATAAACATATACA [CACACA_site650]” the “gcPBM binding intensity (ln)” value was 9.26 ± 0.31. “GTTCTTTTATATATTTGTACATATTTATATATATTG [XGTACX_site4078]” was tested, and the “gcPBM binding intensity (ln)” value was 9.08 ± 0.52. In the case of “CATTCTTGTTTAAAAAGTACATAAACATATATATAT [XGTACX_site1751]”, the “gcPBM binding intensity (ln)” value is reported as 8.53 ± 0.37. For “AAAAAAAATAAAGAGAAAAAAAAAAGAAAATTATAT [GTGCAC_negctrl_site550]”, the “gcPBM binding intensity (ln)” value was 8.46 ± 0.47. “TAAATTAATATGTATCGTACAATATATAAAACGATG [XGTACX_site2818]” was tested, and the “gcPBM binding intensity (ln)” value was 8.74 ± 0.38. In the case of “ATTTAAATAAGATATACACACAAGTAGAAGACTATG [CACACA_site806]”, the “gcPBM binding intensity (ln)” value is reported as 9.04 ± 0.38. With “TTTTCGATGTTGGTAGGAAGTTTGGTACACGTAGTA [TGCATGCA_negctrl_site145]” the “gcPBM binding intensity (ln)” value was 8.63 ± 0.45. For “CGTATTTATAGAATTACACACCATATTGTAATTATT [CACACA_site7722]”, the “gcPBM binding intensity (ln)” value was 8.82 ± 0.38. In the case of “TTTTTTTTGTAATACGCATGCTAAAAATATTTATAA [TGCATGCA_site656]”, the “gcPBM binding intensity (ln)” value is reported as 8.45 ± 0.45. “GTGTTTTTATTATTTTGTACACATATATTTAATATT [XGTACX_site2109]” was tested, and the “gcPBM binding intensity (ln)” value was 9.17 ± 0.49. For “TTGTCCCTATAAGGGGAACACACATAAATGAATATA [CACACA_site8250]”, the “gcPBM binding intensity (ln)” value was 8.7 ± 0.49. With “ATAATGTTTTATAATACACACATTATGTATATAAAT [CACACA_site4077]” the “gcPBM binding intensity (ln)” value was 8.94 ± 0.41. In the case of “AAAACTATTTGTAAAAGTACATAATAAATAAATAAA [XGTACX_site7922]”, the “gcPBM binding intensity (ln)” value is reported as 8.75 ± 0.42. For “GAATGTCTAATTTTGATGCACACTTTTGTGCAATTA [CACACA_site2902]”, the “gcPBM binding intensity (ln)” value was 8.79 ± 0.41. With “AAAATTCATATATACACACACGCACATATATATATA [CACACA_site90]” the “gcPBM binding intensity (ln)” value was 9.71 ± 0.21. “CAAAAAATTCAACACACACACACACCGATAAATAAA [CACACA_site8330]” was tested, and the “gcPBM binding intensity (ln)” value was 10.11 ± 0.071. For “TTATATTATTCGTGTGTGCACGATATTTCATAATTG [GTGCAC_site9767]”, the “gcPBM binding intensity (ln)” value was 9.07 ± 0.31. “TTTCCTTATAAAAATACACACAAACTTTAATTAAAA [CACACA_site7710]” was tested, and the “gcPBM binding intensity (ln)” value was 8.48 ± 0.4. “TATTACACATATTATACACACATATATTATAGATAT [CACACA_site6839]” was tested, and the “gcPBM binding intensity (ln)” value was 9.12 ± 0.36. For “TTTCTTTTTAAATGCTGTACAAAGGGTGACGTTAAA [XGTACX_site4724]”, the “gcPBM binding intensity (ln)” value was 8.43 ± 0.38. “TATTCCAAATTTACTAGTACATAATCCATCCGATAA [XGTACX_site1558]” was tested, and the “gcPBM binding intensity (ln)” value was 8.53 ± 0.44. “AATAGAATGTAATATACACACATATATTTCTCTTTT [CACACA_site2630]” was tested, and the “gcPBM binding intensity (ln)” value was 8.94 ± 0.43. In the case of “TATATATATATATATTGTACACATTGTGTTTAAATA [XGTACX_site5104]”, the “gcPBM binding intensity (ln)” value is reported as 9.24 ± 0.33. “TTGTAACCTATGCACGCACACAAGAAAAAAACAAAA [CACACA_site3775]” was tested, and the “gcPBM binding intensity (ln)” value was 9.22 ± 0.46. With “TTTTTATTGTTAATTTTAATTTTTTTTTTTTAATGC [CACACA_negctrl_site162]” the “gcPBM binding intensity (ln)” value was 8.3 ± 0.51. “ATATTTTTTAGTAAGACGAAATAAATAAATCTTTAT [CACACA_negctrl_site1778]” was tested, and the “gcPBM binding intensity (ln)” value was 8.17 ± 0.42. For TTTTCTTTTTTTTTTGTGCACATAATATATAATTAT, the “gcPBM binding intensity (ln)” value was 8.88 ± 0.52. In the case of “TATATATATATAAGCACACAAACAAAAAAAATTATA [CACACA_site3897]”, the “gcPBM binding intensity (ln)” value is reported as 9 ± 0.41. In the case of “ATTGAATATGTAAATGCACACCAAAAAAAAAAAAAA [CACACA_site9189]”, the “gcPBM binding intensity (ln)” value is reported as 8.96 ± 0.45. For “TTTTTCCTATTTTTAGTGCACATATAAATAAATAAA [GTGCAC_site9821]”, the “gcPBM binding intensity (ln)” value was 8.31 ± 0.45.
